Data published in the antibiotic and cytotoxicity screens of Wong et al. (2023).
The other results are listed elsewhere or left out.

The compounds below were run on S. aureus RN4220 (assay: growth inhibition call (relative growth <= 0.2)). Conditions: 50 µM.

Growth inhibition call, inactive:
CC(C)NC(=O)Nc1ccc2c(c1)C(=O)N([C@@H](C)CO)C[C@@H](C)[C@@H](CN(C)S(C)(=O)=O)OCCCC[C@@H](C)O2, Cc1noc(C)c1N, C[C@@H]1CCCCO[C@H](CN(C)C(=O)Nc2ccc(C(F)(F)F)cc2)[C@@H](C)CN([C@@H](C)CO)C(=O)c2cc(NC(=O)CCC(F)(F)F)ccc2O1, NC(CCC(=O)NC(CS)C(=O)NCC(=O)O)C(=O)O (configuration not stated), C[C@@H]1CN([C@H](C)CO)S(=O)(=O)c2ccc(-c3ccccc3F)cc2O[C@@H]1CN(C)S(C)(=O)=O, CCC[C@@H](O)C#Cc1cnc2c(c1)C(=O)N([C@H](C)CO)C[C@H](C)[C@H](CN(C)S(=O)(=O)c1ccc(C)cc1)O2, COCCNC(=O)C[C@@H]1CC[C@H]2[C@@H](COC[C@@H](O)CN2C(=O)Nc2ccc3c(c2)OCO3)O1, O=C(C[C@H]1C[C@H]2c3cc(NS(=O)(=O)c4ccc(F)cc4)ccc3O[C@H]2[C@H](CO)O1)N1CCOCC1, Cl.Cl.OCCN1CCN(CCCN2c3ccccc3Sc3ccc(C(F)(F)F)cc32)CC1, C[C@H]1CCCCO[C@H](CN(C)C(=O)NC2CCCCC2)[C@@H](C)CN([C@@H](C)CO)C(=O)c2cc(NC(=O)Nc3ccc4c(c3)OCO4)ccc2O1, COc1cccc(-c2ccc3c(c2)O[C@@H](CN(C)C(=O)C2CC2)[C@H](C)CN([C@H](C)CO)S3(=O)=O)c1, OCCC[C@@H](O)c1ccc(OCCO)cc1
